# Data: the supplement of paper PMC12217912
# This is one part of the list. Sequences were assembled here from the parent chain. Inactive controls read about 0.05.
# B1: TEV protease; numbered along this chain (parent)
# chain: MGESLFKGPRDYNPISSSICHLTNESDGHTTSLYGIGFGPFIITNKHLFRRNNGTLVVQSLHGVFKVKDTTTLQQHLVDGRDMIIIRMPKDFPPFPQKLKFREPQREERICLVTTNFQTKSMSSMVSDTSCTFPSGDGIFWKHWIQTKDGQCGSPLVSTRDGFIVGIHSASNFTNTNNYFTSVPKNFMELLTNQEAQQWVSGWRLNADSVLWGGHKVFMVKPEEPFQPVKEATQL
# Variants of: B1
# Test: raw area under fraction-flipped curve 0-4 h after induction (AUC4h, not background-subtracted), DNA-recorder readout of cleavage of the substrate (dimensionless); higher = more cleavage of the substrate by the protease variant
# Settings: temperature: 34 °C; time window: 0-4 h after rhamnose induction
# Description: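 In vivo DNA recorder in E. coli TOP10(DE3) ΔrhaA at 34 °C. Each TEVp single-site mutant (parent TEVp 0) is paired with a single-site variant of the 7-mer TEVs (canonical ENLYFQ|S). The substrate sits between flexible linkers in a Bxb1-sfGFP-TEVs-SsrA fusion, so cleavage stabilises Bxb1 and speeds flipping of a recombination array, read by NGS. The value is the raw area under the fraction-flipped curve over 0-4 h after rhamnose induction (AUC4h), with ≥20 reads per time point. It is not background-subtracted; inactive controls average about 0.047.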
# 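Also: Bxb1 expression induced with 0.2% (w/v) L-rhamnose at OD600 near 0.5, cultures sampled hourly, flipped fraction per protease–substrate barcode pair counted by paired-end Illumina sequencing.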
Variant,area with substrate ENLYFDS,area with substrate ENLYFFS,area with substrate ENLYFKS,area with substrate ENLYFSS,area with substrate ENLYFTS,area with substrate ENLYFWS,area with substrate ENLYFYS,area with substrate ENLYFES,area with substrate ENLYFNS,area with substrate ENLYFMS
MGESLFKGPRDYNPISSSICHLTNESDGHTTSLYGIGFGPFIITNKHLFRRNNGTLVVQSLHGVFKVKDTTTLQQHLVDGRDMIIIRMPKDFPPFPQKLKFREPQREERICLVTTNFQTKSMSSMVSDTSCTFPSGDGIFWKHWIQTKDGQCGSPLVSTRDGFIVGIHSASNFTNTNNYFTSVPKNFMELLTNQEAQQWVSGWRLNADSVLWGGHKVFMVKPEEPVQPVKEATQL [F226V],0.0517,0.0446,0.056,0.0691,0.0621,0.0443,0.0532,,,
MGESLFKGPRDYNPISSSICHLTNESDGHTTSLYGIGFGPFIITNKHLFRNNNGTLVVQSLHGVFKVKDTTTLQQHLVDGRDMIIIRMPKDFPPFPQKLKFREPQREERICLVTTNFQTKSMSSMVSDTSCTFPSGDGIFWKHWIQTKDGQCGSPLVSTRDGFIVGIHSASNFTNTNNYFTSVPKNFMELLTNQEAQQWVSGWRLNADSVLWGGHKVFMVKPEEPFQPVKEATQL [R51N],,,0.0612,,,,,0.0737,0.074,
MGESLFKGPRDYNPISSSICHLTNESDGHTTSLYGIGFGPFIITNKHLFRRNNGTLVVQSLHGVFKVKDTTTLQQHLVDGRDMIIIRMPKDFPPFPQKLKFREPQREERICLVTTNFQTKSMSSMVSDTSCTFPSGDGIFWKHWIQTKDGQCGSPLVSTRDGFIVGIHSASNFTNTNNYFTSVPKNFMELLTNQEAQQWVSGWPLNADSVLWGGHKVFMVKPEEPFQPVKEATQL [R204P],0.0945,,,,,,,,0.071,0.0609
MGESLFKGPRDYNPISSSICHLTNESDGHTTSLYGIGFGPFIITNKHLFRRNNGTLVVQSLHGVFKVKDTTTLQQHLVDGRDMIIIRMPKDFPPFPQKLKFREPQREERICLVTTNFQTKSMSSMVSDTSCTFPSGDGIFWKHWIQTKDGQCGSPLVSTRDGFIVGIHSASNFTNTNNYFTSVPKNFMELLTNQEAQQWVSGWRLNADNVLWGGHKVFMVKPEEPFQPVKEATQL [S209N],0.0429,0.0708,,,0.0355,0.0395,0.07,0.0722,0.0682,0.0909
MGESLFKGPRDYNPISSSICHLTNESDGHTTSLYGIGFGPFIITNKHLFRRNNGTLVVQSLHGVFKVKDTTTLQQHLVDGRDMIIIRMPKDFPPFPQKLKFREPQREERICLVTTNFQTKSMSSMVSDTSCTFPSGDGIFWKHWIQTKDGQCGSPLVSTRDGFIVGIHSASNFTNTNNYFTSVPKNFMELLTNQEAQQWVSGWRLNADKVLWGGHKVFMVKPEEPFQPVKEATQL [S209K],0.0748,,,,0.0662,,0.0484,,,0.0671
MGESLFKGPRDYNPISSSICHLTNESDGHTTSLYGIGFGPFIITNKHLFRRNNGTLVVQSLHGVFKVKDTTTLQQHLVDGRDMIIIRMPKDFPPFPQKLKFREPQREERICLVTTNFQTKSMSSMVSDTSCTFPSGDGIFWKHWIQTKDGQCGSPLVSTRDGFIVGIHSASNFTNTNNYFTSVPKNFMELLTNQEAQQWVSGWRLNADRVLWGGHKVFMVKPEEPFQPVKEATQL [S209R],0.0369,,,,0.0541,,,,0.0514,0.0539
MGESLFKGPRDYNPISSSICHLTNESDGHTTSLYGIGFGPFIITNKHLFRRNNGTLVVQSLHGVIKVKDTTTLQQHLVDGRDMIIIRMPKDFPPFPQKLKFREPQREERICLVTTNFQTKSMSSMVSDTSCTFPSGDGIFWKHWIQTKDGQCGSPLVSTRDGFIVGIHSASNFTNTNNYFTSVPKNFMELLTNQEAQQWVSGWRLNADSVLWGGHKVFMVKPEEPFQPVKEATQL [F65I],,0.0634,0.0628,,0.0957,0.0517,,0.0635,,0.0711
MGESLFKGPRDYNPISSSICHLTNESDGHTTSLYGIGFGPFIITNKHLFRRNNGTLVVQSLHGVFKVKDTTTLQQHLVDGRDMIIIRMPKDFPPFPQKLKFREPQREERICLVTTNFQTKSMSSMVSDTSCTFPSGDGIFWKHWIQTKDGQCGSPLVSTRDGFIVGIHSASNFTNTNNYFTSVPKNFMELLTNQEAQQWVSGWRLNADSVLWGGKKVFMVKPEEPFQPVKEATQL [H215K],0.0705,0.0667,0.0881,,0.0564,0.0533,0.0315,0.0625,0.0619,0.0487
MGESLFKGPRDYNPISSSICHLTNESDGHTTSLYGIGFGPFIITNKHLFRRNNGTLVVQSFHGVFKVKDTTTLQQHLVDGRDMIIIRMPKDFPPFPQKLKFREPQREERICLVTTNFQTKSMSSMVSDTSCTFPSGDGIFWKHWIQTKDGQCGSPLVSTRDGFIVGIHSASNFTNTNNYFTSVPKNFMELLTNQEAQQWVSGWRLNADSVLWGGHKVFMVKPEEPFQPVKEATQL [L61F],,,,,,0.0695,,0.0561,,
MGESLFKGPRDYNPISSSICHLTNESDGHTTSLYGIGFGPFIITNKHLFRRNNGTLIVQSLHGVFKVKDTTTLQQHLVDGRDMIIIRMPKDFPPFPQKLKFREPQREERICLVTTNFQTKSMSSMVSDTSCTFPSGDGIFWKHWIQTKDGQCGSPLVSTRDGFIVGIHSASNFTNTNNYFTSVPKNFMELLTNQEAQQWVSGWRLNADSVLWGGHKVFMVKPEEPFQPVKEATQL [V57I],,0.0675,0.0521,,0.0636,0.0582,,0.0601,0.0668,0.0585

# Same assay, conditions: temperature: 34 °C; time window: 0-4 h after rhamnose induction
Variant,area with substrate ENLYFHS,area with substrate ENLYFIS,area with substrate ENLYFGS,area with substrate ENLYFRS,area with substrate ENLYFLS,area with substrate ENLYFPS,area with substrate ENLYFVS
MGESLFKGPRDYNPISSSICHLTNESDGHTTSLYGIGFGPFIITNKHLFRRNNGTLVVQSLHGVFKVKDTTTLQQHLVDGRDMIIIRMPKDFPPFPQKLKFREPQREERICLVTTNFQTKSMSSMVSDTSCTFPSGDGIFWKHWIQTKDGQCGSPLVSTRDGFIVGIHSASNFTNTNNYFTSVPKNFMELLTNQEAQQWVSGWRLNADNVLWGGHKVFMVKPEEPFQPVKEATQL [S209N],0.0627,0.0564,,,,,
MGESLFKGPRDYNPISSSICHLTNESDGHTTSLYGIGFGPFIITNKHLFRRNNGTLVVQSLHGVFKVKDTTTLQQHLVDGRDMIIIRMPKDFPPFPQKLKFREPQREERICLVTTNFQTKSMSSMVSDTSCTFPSGDGIFWKHWIQTKDGQCGSPLVSTRDGFIVGIHSASNFTNTNNYFTSVPKNFMELLTNQEAQQWVSGWRLNADKVLWGGHKVFMVKPEEPFQPVKEATQL [S209K],,0.0488,0.0323,0.0826,,,
MGESLFKGPRDYNPISSSICHLTNESDGHTTSLYGIGFGPFIITNKHLFRRNNGTLVVQSLHGVFKVKDTTTLQQHLVDGRDMIIIRMPKDFPPFPQKLKFREPQREERICLVTTNFQTKSMSSMVSDTSCTFPSGDGIFWKHWIQTKDGQCGSPLVSTRDGFIVGIHSASNFTNTNNYFTSVPKNFMELLTNQEAQQWVSGWRLNADRVLWGGHKVFMVKPEEPFQPVKEATQL [S209R],0.0669,0.0531,,0.0475,0.0559,0.0441,0.0577
MGESLFKGPRDYNPISSSICHLTNESDGHTTSLYGIGFGPFIITNKHLFRRNNGTLVVQSLHGVIKVKDTTTLQQHLVDGRDMIIIRMPKDFPPFPQKLKFREPQREERICLVTTNFQTKSMSSMVSDTSCTFPSGDGIFWKHWIQTKDGQCGSPLVSTRDGFIVGIHSASNFTNTNNYFTSVPKNFMELLTNQEAQQWVSGWRLNADSVLWGGHKVFMVKPEEPFQPVKEATQL [F65I],0.062,0.0591,,0.0601,0.0558,0.0251,0.0655
MGESLFKGPRDYNPISSSICHLTNESDGHTTSLYGIGFGPFIITNKHLFRRNNGTLVVQSLHGVFKVKDTTTLQQHLVDGRDMIIIRMPKDFPPFPQKLKFREPQREERICLVTTNFQTKSMSSMVSDTSCTFPSGDGIFWKHWIQTKDGQCGSPLVSTRDGFIVGIHSASNFTNTNNYFTSVPKNFMELLTNQEAQQWVSGWRLNADSVLWGGKKVFMVKPEEPFQPVKEATQL [H215K],0.0721,0.0564,,0.0566,,0.0573,0.0549
MGESLFKGPRDYNPISSSICHLTNESDGHTTSLYGIGFGPFIITNKHLFRRNNGTLVVQSFHGVFKVKDTTTLQQHLVDGRDMIIIRMPKDFPPFPQKLKFREPQREERICLVTTNFQTKSMSSMVSDTSCTFPSGDGIFWKHWIQTKDGQCGSPLVSTRDGFIVGIHSASNFTNTNNYFTSVPKNFMELLTNQEAQQWVSGWRLNADSVLWGGHKVFMVKPEEPFQPVKEATQL [L61F],,,,,,0.0633,
MGESLFKGPRDYNPISSSICHLTNESDGHTTSLYGIGFGPFIITNKHLFRRNNGTLIVQSLHGVFKVKDTTTLQQHLVDGRDMIIIRMPKDFPPFPQKLKFREPQREERICLVTTNFQTKSMSSMVSDTSCTFPSGDGIFWKHWIQTKDGQCGSPLVSTRDGFIVGIHSASNFTNTNNYFTSVPKNFMELLTNQEAQQWVSGWRLNADSVLWGGHKVFMVKPEEPFQPVKEATQL [V57I],0.0458,0.0719,0.0621,0.0631,0.0663,0.0619,0.0451
